According to the supplement of paper PMC12009370:
This is one part of the list. Repeats are few or missing, and single values can be far off.

What was measured:
[1] = test system: IMR-32; experiment: drug sensitivity score (DSS), single drug with vehicle (DSS (score)); higher = more cytotoxic; extreme values may be limits of the assay; conditions: 72 h; co-treatment: vehicle (DMSO)
[2] = test system: SK-N-AS; experiment: as above; conditions: 72 h; co-treatment: vehicle (DMSO)
[3] = test system: SK-N-AS; experiment: drug sensitivity score (DSS) in combination with SL-176 (DSS (score)); higher = more cytotoxic; extreme values may be limits of the assay; conditions: 72 h; co-treatment: SL-176 11.2 uM (IC25 in IMR-32)
[4] = test system: IMR-32; experiment: as above; conditions: 72 h; co-treatment: SL-176 11.2 uM (IC25 in IMR-32)
[5] = test system: SK-N-AS; experiment: drug sensitivity score (DSS) in combination with GSK2830371 (DSS (score)); neuroblastoma lines; SL-176 and GSK2830371 are WIP1 inhibitors; higher = more cytotoxic; extreme values may be limits of the assay; conditions: 72 h; co-treatment: GSK2830371 at IC25 in IMR-32
[6] = test system: IMR-32; experiment: as above; conditions: 72 h; co-treatment: GSK2830371 at IC25 in IMR-32
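Wherever drug sensitivity score (DSS) in combination with GSK2830371 is given: neuroblastoma cells in 384-well plates, each compound at five concentrations, luminescence read-out, DSS derived from fitted concentration-response curve combining IC50 with minimum and maximum inhibition.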
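Wherever drug sensitivity score (DSS) in combination with SL-176 is given: cells in 384-well plates, luminescence read-out, each screening drug at five concentrations, DSS derived from the fitted concentration-response curve combining IC50 with minimum and maximum inhibition.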
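Wherever drug sensitivity score (DSS), single drug with vehicle is given: 384-well screen with five concentrations per compound and a luminescence read-out, DSS computed from the fitted dose-response curve combining IC50 with minimum and maximum inhibition.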

Structure (SMILES)	drug sensitivity score [1]	drug sensitivity score [2]	drug sensitivity score [3]	drug sensitivity score [4]	drug sensitivity score [5]	drug sensitivity score [6]
COc1cc([C@@H]2c3cc4c(cc3[C@@H](O[C@@H]3O[C@@H]5CO[C@@H](c6cccs6)O[C@H]5[C@H](O)[C@H]3O)[C@H]3COC(=O)[C@H]23)OCO4)cc(OC)c1O [Teniposide]	0	0	0	0	0	0
CCOCc1nc2c(N)nc3ccccc3c2n1CC(C)(C)O [Resiquimod]	0	0	0	0	0.8	0
CCS(=O)(=O)N1CC(CC#N)(n2cc(-c3ncnc4[nH]ccc34)cn2)C1 [Baricitinib]	0	0	0	0	0	0
O=C(NC[C@H](O)CN1CCc2ccccc2C1)c1cc(NC2COC2)ncn1	0	0.1	0.4	1.3	0	2.6
O=C(Nc1cccc(Nc2ncc(Br)c(NCCc3cnc[nH]3)n2)c1)N1CCCC1	17	7.7	7.6	16.9	8.8	17.1
CC[C@H](C)C(=O)O[C@H]1C[C@@H](C)C=C2C=C[C@H](C)[C@H](CC[C@@H]3C[C@@H](O)CC(=O)O3)[C@H]21 [Lovastatin]	1.8	0	0	0	0	3.6
C[C@@H]1CN(Cc2ccc(F)cc2)[C@@H](C)CN1C(=O)c1cc2c(C(=O)C(=O)N(C)C)cn(C)c2cc1Cl [Talmapimod]	1.6	0	0	1	0	1.8
Cn1cc(-c2ccc(F)c(C(F)(F)F)c2)nc1C1CCN(c2ncnc3[nH]ncc23)CC1	3.5	0	0	0	0	4.2
N#Cc1ccc2[nH]c(O)c(-c3ccc(CN4CCOCC4)cn3)c2c1	0	0	0	0	0	0
O=C(Nc1cccc(NC(=O)c2cccc(O)c2O)c1)c1cccc(O)c1O	21.6	17	19.6	25	16.9	24.8
CN(C)CCOc1ccc(/C(=C(/CCCl)c2ccccc2)c2ccccc2)cc1 [Toremifene]	5.6	3.9	4.6	7.9	5.3	5
CO[C@H](C(=O)[C@@H](O)[C@@H](C)O)[C@@H]1Cc2cc3cc(O[C@H]4C[C@@H](O[C@@H]5C[C@@H](O)[C@H](O)[C@@H](C)O5)[C@H](O)[C@@H](C)O4)c(C)c(O)c3c(O)c2C(=O)[C@H]1O[C@H]1C[C@@H](O[C@@H]2C[C@@H](O)[C@@H](O[C@@H]3C[C@](C)(O)[C@H](O)[C@@H](C)O3)[C@@H](C)O2)[C@H](O)[C@@H](C)O1 [Plicamycin]	19.2	5.6	6.1	10.1	5.7	15.8
CCN(CC)CCNC(=O)c1c(C)[nH]c(/C=C2\C(=O)Nc3ccc(F)cc32)c1C [Sunitinib]	1.8	2.8	1.5	0.9	2.6	0
CC(C)NC(=O)COc1cccc(-c2nc(Nc3ccc4[nH]ncc4c3)c3ccccc3n2)c1	8.4	10.9	12.4	10.1	10.9	8.4
CCCCCCCCCCCCCCCCOP(=O)([O-])OCC[N+](C)(C)C [Miltefosine]	6.2	5.4	6.1	9.3	6.5	10.5
CS(=O)(=O)CCNCc1ccc(-c2ccc3ncnc(Nc4ccc(OCc5cccc(F)c5)c(Cl)c4)c3c2)o1 [Lapatinib]	0	0	0	0.6	0	0
CNc1ncc2cc(-c3cc(NC(=O)NCCC(C)(C)C)c(F)cc3C)c(C)nc2n1	8.7	18.8	17.5	6.3	17.7	9.6
C[C@H](Nc1ncnc2nc[nH]c12)c1cc2cccc(Cl)c2c(=O)n1-c1ccccc1 [Duvelisib]	0	0	0	0	0	0
Clc1ccc(Nc2nnc(Cc3ccncc3)c3ccccc23)cc1 [Vatalanib]	0	0	0	0	0	0
CC[C@@](C)(Nc1ccnc(-c2c[nH]c3ncccc23)n1)C(=O)NCC(F)(F)F [Decernotinib]	1.1	0	0	0	0	0.3
CC(C)[C@@H](CS(=O)(=O)C(C)C)N1C(=O)[C@@](C)(CC(=O)O)C[C@H](c2cccc(Cl)c2)[C@H]1c1ccc(Cl)cc1	17.5	0	0	20.5	0	23.5
CCN1C(=O)CNc2ncc(-c3ccc(-c4nc[nH]n4)nc3C)nc21	9.7	8.6	8.8	8.7	9.2	11.5
CCn1cc(-c2ccnc3[nH]c(-c4cccc(CN(C)C)c4)cc23)c(-c2ccc(NC(=O)N(C)C)cc2)n1	27.9	5.6	3.5	30.2	5	27.2
S=C(NCc1ccc2c(c1)OCO2)N1CCN(c2ncnc3c2oc2ccccc23)CC1 [Amuvatinib]	2.7	3	2.5	2.9	4.2	2.4
Cc1nc2cccc(N)c2c(=O)n1C1CCC(=O)NC1=O (stereo not drawn)	0	0	0	0	0.1	0
CN1CCc2c(c3ccccc3n2Cc2ccc(C(=O)NO)cc2)C1 [Tubastatin A]	3.9	3.5	2.2	5.5	3.3	5.1
C[C@@H](Oc1ccc2[nH]nc(/C=C/c3cnn(CCO)c3)c2c1)c1c(Cl)cncc1Cl	16.2	4.8	5.1	16.3	5.7	20.2
C[C@@H]1CN(C(=O)c2ccc(NC(=O)c3cc(O[C@H](C)c4c(Cl)ccc(F)c4Cl)c(N)nn3)cc2)C[C@H](C)N1 [Ensartinib]	5.5	1.8	3.4	6.8	1.8	4.1
